Assay results as given in PubChem BioAssay AID1508624 (National Center for Advancing Translational Sciences (NCATS), 2021).
Hit rate of the full screen: of about 48,000 compounds, about 120 (0.25%) were called active. Another 4% or so got no clear call; they are omitted. Calls follow the shape of the dose curve; as a rule, active = well fitted activation curve with a large enough effect; inconclusive = small, poorly fitted or top-dose-only effect, or another doubt; inactive = no such curve, though single readings can be large or run the other way. This is one part of the list.

Assay: Primary qHTS for Identification of Small Molecule Activators of Huntingtin-Antisense Promoter Activity; also: nearly all actives have a fitted effect of over 55% in size
Details: HEK293 HTT-AS promoter firefly luciferase reporter, 24 h; series mostly up to 57.5 µM; activity change, positive = activation: at the top concentration
Procedure, shortened: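 Luminescence was read after Dual-Glo reagent and a 10 min room-temperature incubation. Values were normalized to vehicle (0% activity) and zero RLU (-100% activity). Reporter HEK293 cells had been exposed to compounds (up to 57.5 uM final) for 24 h.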

Activity change, positive = activation, inactive:
Clc1ccc2c(c1)NC(c1ccncc1)=NC(c1cccs1)=N2 3.36%
O=C1c2c(O)cc(O)cc2O[C@H](c2cc(O)c(O)c(O)c2)[C@H]1O -3.16%
COc1ccc2c(c1)CCc1c(C(=O)Nc3c(C)nn(Cc4ccccc4C)c3C)noc1-2 -28.4%
C[C@]12C=CC(=O)C=C1CC[C@@H]1[C@@H]2[C@@H](O)C[C@@]2(C)[C@@H]1CC[C@]2(O)C(=O)CO -11.4%
COc1cc(CNC(=O)c2ccc3nc(CCc4ccccc4)oc3c2)cc(OC)c1OC -11.4%
CCOc1ccccc1NC(=O)C(CC(C)C)NS(=O)(=O)c1ccc2c(c1)oc(=O)n2C (stereo not drawn) 6%
COC(=O)c1c(SC)nc2ccccc2c1OCc1ccc(Cl)cc1 -22%
O=C(COCc1cc(-c2ccc3c(c2)OCO3)on1)N1CCN(c2cccc(Cl)c2)CC1 2.99%
O=c1cc(-c2ccccc2)nc(SCc2nc(-c3ccc(Cl)cc3)no2)[nH]1 -2.26%
Cc1ccc(S(=O)(=O)N(Cc2nc(-c3cccc(C)c3)no2)C2CCCCC2)cc1 -24.3%
CNS(=O)(=O)c1cn(CC(=O)N2CCN(c3cccc(C)c3C)CC2)cc1S(=O)(=O)NC -12.1%
CCN1CCN(C(=O)c2cnn(-c3cccc(Cl)c3)c2C2CCN(C(=O)OC(C)(C)C)CC2)CC1 -18.8%
Cc1ccsc1C(=CCCN1CCC[C@@H](C(=O)O)C1)c1sccc1C -1.67%
CCCn1c(CNC(=O)c2ccc(F)cc2)nc2ccccc21 -7.91%
Cc1ccc2oc(-c3ccc(C)c(NC(=O)c4ccc(N5CCC(C)CC5)c([N+](=O)[O-])c4)c3)nc2c1 21.1%
O=C(CCCN1C(=O)C(c2ccccc2)Oc2cccnc21)Nc1ccccc1C(F)(F)F (stereo not drawn) -15.2%
O=c1c2cc3c(cc2n(Cc2ccc(F)cc2)c(=O)n1Cc1nc(-c2ccccc2)no1)OCO3 -14.3%
Cc1cccc(NC(=O)c2ccc3snnc3c2)c1C 0.105%
Cc1cccc(NC(=O)c2cc3c(=O)n4cccc(C)c4nc3s2)c1C -23%
CC(C)CN(CCCNC(=O)CN1N=C(c2ccc(Cl)cc2)CCC1=O)CC(C)C -2.65%
CCOC(=O)N1CCN(Cc2nc3cc(NC(=O)c4ccccc4[N+](=O)[O-])ccc3n2C(C)C)CC1 -46.3%
Cc1ccc(-n2c3nc(=O)[nH]c(=O)c-3cc3c(C)nn(-c4ccccc4)c32)cc1Cl -6.14%
O=C(NC1CCCCC1)c1ccc(Cn2c(SCc3ccc(F)cc3)nc3cccnc32)cc1 0.596%
Cc1ccc2c(c1)-c1onc(C(=O)N3CCN(c4ccc(Cl)cc4)CC3)c1CO2 -9.28%
Cc1cccc(C)c1NC(=O)NCCc1c[nH]c2ccccc12 -14.4%
CCCNC(=O)C1CCC(Cn2c(=O)c3sccc3n(Cc3ccccc3F)c2=O)CC1 (stereo not drawn) -7.6%
COCCCn1c(=N)c(C(=O)NCc2ccco2)cc2c(=O)n3ccccc3nc21 -10.6%
CNCCCN1c2ccccc2CCc2ccccc21 -14.7%
COc1ccccc1CNC(=O)CCn1nc(C)c2c(C)n(-c3ccccc3)nc2c1=O 0%
O=S(=O)(c1ccccc1)c1nnn2c1nc(NCc1ccc(F)cc1)c1sccc12 -4.48%
CCCCN(CC)C(=O)CSc1nc2n[nH]c(C)c2c(=N)n1-c1cccc(OC)c1 -43.6%
Cc1oc(-c2ccc(Cl)cc2)nc1CS(=O)CC(=O)N1CCN(c2cccc(C(F)(F)F)c2)CC1 (stereo not drawn) -45%
COc1cccc(N2CCN(c3ncnc4c3nc3n4CCCCC3)CC2)c1 -82%
CSC1=NC2(CCN(C(=O)NC3CCCCC3)CC2)N=C1c1ccc(C)cc1 -19.2%
COc1ccc(N2Cc3cccc(C(=O)Nc4cc(C)cc(C)c4)c3C2=O)cc1 3.22%
CCNC(=O)Nc1ccc(-c2nc3c(c(N4CCOC[C@H]4C)n2)CCN(C2COC2)C3)cc1 -24.1%
O=C(C1COc2ccccc2O1)N1CCN(c2nc3ccc(F)cc3s2)CC1 (stereo not drawn) 0.479%
Cc1noc(-c2ccc(-c3noc(-c4cccc(F)c4)n3)cc2)n1 10.9%
Cn1c(=O)c2c(nc(SCC(=O)Nc3ccccc3)n2Cc2ccccc2F)n(C)c1=O -1.98%
CCN(CC)S(=O)(=O)c1nnc(NC(=O)COc2ccccc2F)s1 -19.2%
Nc1c(C(=O)Nc2ccc(OC(F)(F)F)cc2)nnn1Cc1ccccc1 1.34%
Fc1ccc(CNc2ncnc3onc(-c4ccc(F)cc4)c23)cc1 -33%
CCc1c(CN2CCN(c3cccc(C)c3C)CC2)csc1C -10.2%
CCc1cccc(C)c1Nc1c(-c2ccccc2)nc2sccn12 -28.8%
O=C(C1COc2ccccc2O1)N(Cc1cccnc1)c1nc2ccc(Cl)cc2s1 (stereo not drawn) 18.9%
Cc1ccc(C#N)c(=O)n1CC(=O)Nc1ccccc1C(F)(F)F -13.6%
O=C(NCc1ccccc1Cl)C1CCCN(S(=O)(=O)c2cccc3nsnc23)C1 (stereo not drawn) -15.7%
COc1ccc(OC)c(CNC(=O)c2c3c(nc4ccccc24)C(=O)N(C2CCCCC2)C3)c1 5.83%
CCC(=O)N1CCc2cc(Br)cc(S(=O)(=O)N3CCN(c4ccc(C)cc4)C(C)C3)c21 (stereo not drawn) -2.85%
CCOC(=O)c1c(C)[nH]c(C)c1S(=O)(=O)N1CCC(C(=O)N2CCN(c3ccccc3)CC2)CC1 9.16%
CCOC(=O)c1c(C)[nH]c(C)c1S(=O)(=O)N1CCC(C(=O)N2CCN(c3cccc(Cl)c3)CC2)CC1 -22.9%
CCOC(=O)c1c(S(=O)(=O)N2CCC(C(=O)NCc3ccc(F)cc3)CC2)c(C)n(C)c1C -12.1%
C=Cc1ccc(Cn2c(C(=O)O)c(CNC3CCCC3)c3ccc(C)cc32)cc1 -20.5%
CN(C)S(=O)(=O)c1ccc2c(c1)N(CC(=O)Nc1ccc(OC(F)(F)F)cc1)C(=O)CS2 -19.3%
Cc1cccc(N(C)C(=O)CCS(=O)(=O)c2ccc3c(c2)oc(=O)n3C)c1 -4.03%
COc1ccc(OCC(=O)NC2CC(=O)N(c3cccc(OC)c3)C2)cc1 (stereo not drawn) -7.46%
CCCN(CCC)CC(O)Cn1cc(/C=C/C(=O)c2ccc(C)cc2)c2ccccc21 (stereo not drawn) -21%
CC(C)(C(=O)NCC(F)(F)C(F)(F)F)C(=O)N[C@@H]1C(=O)Nc2ccccc2-c2ccccc21 -37%
CCN(CC)CCOc1ccccc1C(=O)CCc1ccccc1 -14.4%
COc1ccc(NC(=O)CN2CCN(Cc3ccc(F)cc3)S2(=O)=O)cc1Cl -11.6%
COc1ccc(NC(=O)c2cc(S(=O)(=O)N3CCCCCC3)cn2C)c(OC)c1 -14.6%
CC(C(=O)NCc1ccc(Cl)cc1)n1ccc2cc(S(=O)(=O)N3CCCCCC3)ccc21 (stereo not drawn) -3.51%
C=CC(=O)Nc1cccc(Nc2nc(NC3CCC(N(C)C)CC3)nc3c2ncn3C(C)C)c1 (stereo not drawn) -42.4%
CCCCNc1nc2c(c(=O)n(C)c(=O)n2C)n1CC(O)COc1ccccc1C (stereo not drawn) 9.14% [at 11.5 µM, percent change from vehicle, -100% = no light]
O=C(Nc1ccc(F)c(Cl)c1)C1CCN(S(=O)(=O)c2ccc3[nH]c(=O)ccc3c2)CC1 -39.7%
CCOC(=O)c1c(NC(=O)c2ccc(Br)cc2)sc2c1CCCC2 -2.72%
O=C(O)c1cccc(Nc2ncnc3ccc(Br)cc23)c1 -13%
Cc1nn(C)c2c1c(C(F)(F)F)cc(=O)n2CC(=O)N1CCCCC1 3.12%
Cc1ccc(C(=O)Nc2nc3n(n2)C(c2ccc(F)cc2)C=C(c2ccccc2)N3)cc1 (stereo not drawn) -29.1%
COc1ccc(C(=O)Nc2nnc(S(=O)(=O)N3CCCc4ccccc43)s2)cc1 2.1%
Cc1ccc2nc(-c3cccc(NC(=O)c4ccc(Br)o4)c3)oc2c1 9.57%
CCOc1ccccc1-n1nnc(-c2nc(-c3ccccc3C)no2)c1C 12.3%
Cc1ccc(NC(=O)CSc2ccc3nnc(CCNS(=O)(=O)c4ccccc4)n3n2)cc1Cl -21.4%
Cc1ccc(Cl)cc1NC(=O)N1CCC(CN2CCCCCC2)CC1 0.935%
Cc1ccc2cc(CN(C)C(=O)c3cccc(Cl)c3)c(=O)[nH]c2c1 -9.81%
Cc1ccccc1NC(=O)c1cccc2c(=O)c3c([nH]c12)CCCC3 -14.7%
CCOCCn1ccc2c(OCC(=O)NCc3ccc(C)cc3)cccc2c1=O -21.9%
CN(C)CCNC(=O)c1ccc2c(c1)N(Cc1ccccc1)C(=O)c1ccccc1S2(=O)=O -8.16%
CCCSc1ncc(Cl)c(C(=O)NCc2ccc(OC)cc2)n1 -25.8%
COc1ccc(-c2cn3nc(N4CCCC(C(=O)Nc5cccc(Cl)c5C)C4)sc3n2)cc1 (stereo not drawn) -23.3%
O=C1c2[nH]nc(-c3ccccc3O)c2C(c2cccc(O)c2)N1Cc1ccncc1 (stereo not drawn) 9.47%
O=C(Cn1cc(C(=O)c2ccncc2)c(=O)c2cc(F)ccc21)Nc1ccc(Cl)cc1 -15.7%
COCCCNC(=O)N1[C@H](c2cccs2)[C@@H](C)C(=O)[C@@H](C)[C@@H]1c1cccs1 -18.9%
Cc1ccc2c(c1)N(S(=O)(=O)c1cc(-c3onc(C)c3C)ccc1C)CCO2 -70.1%
O=C(CN1C(=O)COc2ccc(S(=O)(=O)N3CCCC3)cc21)N1CCN(c2ccc(Cl)cc2)CC1 -29.3%
COc1cccc(-n2cc(C(=O)OCc3ccc(F)c(F)c3)c3ccccc3c2=O)c1 -20.5%
COc1ccccc1CNC(=O)CCn1c(=O)c2ccccc2n(CC(=O)Nc2ccc(Br)cc2F)c1=O -55.5%
CCCN(C(=O)c1cc2c(=O)oc3ccccc3c2s1)c1cccc(Cl)c1 -19.2%
CCOC(=O)N1CCN(C(=O)CN(c2cccc(Cl)c2)S(=O)(=O)c2ccccc2)CC1 -24.8%
CCCc1cc(=O)n2[nH]c(NC(=O)c3ccccc3Cl)nc2n1 9.03%
Cc1ccc(NC(=O)N2CCc3cc(S(=O)(=O)N4CCC(C)CC4)ccc32)cc1F -9%
CCOC(=O)c1ccc(N2C(=O)c3[nH]nc(-c4ccc(OC)cc4)c3C2c2ccccc2Cl)cc1 (stereo not drawn) -0.158%
COc1ccc(C2c3c(n(C)c4ccccc34)C(=O)N2CC(=O)Nc2cc(Cl)ccc2C)cc1 (stereo not drawn) -37.2%
